# Measured values taken from a collection of fitness landscapes (doi:10.1126/science.1257360).
# The list shows a part of the results.
# B1: PhoQ; a variant is named by its letters at X, in order, P23837 (parent)
# chain: MKKLLRLFFPLSLRVRFLLATAAVVLVLSLAYGMVALIGYSVSFDKTTFRLLRGESNLFYTLAKWENNKLHVELPENIDKQSPTMTLIYDENGQLLWAQRDVPWLMKMIQPDWLKSNGFHEIEADVNDTSLLLSGDHSIQQQLQEVREDDDDAEMTHSVAVNVYPATSRMPKLTIVVVDTIPVELKSSYMVWSWFIYVLSANLLLVIPLLWVAAWWSLRPIEALAKEVRELEEHNRELLNPATTRELTSLVRNLNRLLKSERERYDKYRTTLTDLTHSLKTPLXXLQXXLRSLRSEKMSVSDAEPVMLEQISRISQQIGYYLHRASMRGGTLLSRELHPVAPLLDNLTSALNKVYQRKGVNISLDISPEISFVGEQNDFVEVMGNVLDNACKYCLEFVEISARQTDEHLYIVVEDDGPGIPLSKREVIFDRGQRVDTLRPGQGVGLAVAREITEQYEGKIVAGESMLGGARMEVIFGRQHSAPKDE
# Variants of: B1
# Experiment: enrichment ratio after two sorts for PhoP signalling (ratio (wild type AVST 3.29)); higher = more functional
# Details: with PhoP (E. coli)
row,Variant,enrichment ratio
1,PRND,≤ 0.25
2,MGCA,≤ 0.25
3,RSVC,≤ 0.25
4,DTCF,≤ 0.25
5,DWCM,≤ 0.25
6,WPCI,≤ 0.25
7,LGEI,≤ 0.25
8,YICN,≤ 0.25
9,TEWP,≤ 0.25
10,ECAG,≤ 0.25
11,HPCL,≤ 0.25
12,AGPI,≤ 0.25
13,EMCT,≤ 0.25
14,IRDM,≤ 0.25
15,QDYF,≤ 0.25
16,SAAG,14.1
17,SMQQ,≤ 0.25
18,RNGG,≤ 0.25
19,AFYN,≤ 0.25
20,SYCC,≤ 0.25
21,SAQT,≤ 0.25
22,RCMY,≤ 0.25
23,FYNY,≤ 0.25
24,FGAE,≤ 0.25
25,PTPP,≤ 0.25
26,MVGD,≤ 0.25

row,Variant,enrichment ratio
1,MRYL,≤ 0.25
2,AFDW,≤ 0.25
3,EVDN,≤ 0.25
4,EGSG,≤ 0.25
5,FKWA,≤ 0.25
6,WAVM,≤ 0.25
7,TALL,12
8,FWIG,≤ 0.25
9,LCKQ,≤ 0.25
10,TPPT,≤ 0.25
11,ELFT,≤ 0.25
12,TGHR,≤ 0.25
13,VGHN,≤ 0.25
14,KGNR,≤ 0.25
15,EISK,≤ 0.25
16,VPAW,≤ 0.25
17,SKTL,10.2
18,DDYI,≤ 0.25
19,QCIM,≤ 0.25
20,FPNN,≤ 0.25
21,MQDW,≤ 0.25
22,WGKI,≤ 0.25
23,SMST,13.1
24,YFAR,≤ 0.25
25,NQAR,≤ 0.25
26,KRLT,≤ 0.25

row,Variant,enrichment ratio
1,FSSS,≤ 0.25
2,IFDT,≤ 0.25
3,WEWI,≤ 0.25
4,HDSV,≤ 0.25
5,MRIF,≤ 0.25
6,DTDW,≤ 0.25
7,MGMI,5.28
8,HKCC,≤ 0.25
9,VVPL,≤ 0.25
10,PSYQ,1.11
11,PEHI,≤ 0.25
12,VGWD,0.432
13,ISIK,≤ 0.25
14,LTYL,0.587
15,ASKI,≤ 0.25
16,DTFH,≤ 0.25
17,FAPM,0.451
18,DPAY,≤ 0.25
19,MFSG,≤ 0.25
20,YFEW,≤ 0.25
21,ERAH,≤ 0.25
22,YFNL,≤ 0.25
23,QNAI,≤ 0.25
24,EFTA,≤ 0.25
